The values that follow come from the RNAGym collection of RNA variant scans (doi:10.1101/gad.245936.114).

Variants at the floor of the assay are shown more often than the library holds them. Bounds are passed on as bounds.

The chains are these.
B1: tRNA (parent)
chain: CUCUCGGUAGCCAAGUUGGUUUAAGGCGCAAGACUUUAAUUUAUCACUACGAAAUCUUGAGAUCGGGCGUUCGACUCGCCCCCGGGAGAUUUUUUCCUCGAGCAA

Variants of B1 are the subject of this series. Nature of the series: nonsense suppression (GFP-seq) (ratio to wild type); higher = more function; SUP4oc tRNA, yeast GFP reporter sort-seq. In a few lines: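 Yeast were grown in raffinose/galactose medium with 80 mg/L adenine, each strain bearing a genome-integrated ochre-suppressor tRNA variant from a ~3% random-mutation library, a galactose-driven GFP ochre reporter, and RFP. After sorting into GFP/RFP bins, every bin was sequenced on an Illumina platform at phred ≥30. The GFPSEQ value, a measure of nonsense suppression, is the weighted bin median GFP/RFP relative to the unmutated parent tRNA, using each variant's estimated cell share per bin as the weight. Only variants with ≥100 reads and ≥30 cells were included.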
As to CUCUCGGUAGCCAAGUUGGUUUACGACGCUAGACUUUAAUUUAUCACUACGAAAUCUUGAGAUCGGGCGUUCGACUCGCGGCCGGGAGAUUUUUUCCUCGAGCAA [A24C G26A A30U C80G C81G], the nonsense suppression was ≤ 0.026. Turning to CUGUCGGUAGCCAAGUUGGGUUAAGGCGCAAGACUUUAAUUUAUCACUACGAAAUCUUGAGAUCGGGCGUUCGACUCGUCCCCGGGAGAUUUUUUCCUCGAGCAA [C3G U20G C79U], the nonsense suppression was ≤ 0.026. Take CUCUCGGUAGCCAAGUUGGUUUAAGGCGCAAGAAUUUAAUUUAUCACUACGAAAUCUUGAGAUCCGGCGUUCGACUCGCCCCCGCGAGAUUUUUUCCUCGAGCAA [C34A G65C G85C]: the nonsense suppression is ≤ 0.026. Consider CUCUCGGUAGCAAAGUUGGUUUAAGGCGCAAGACUUUAAUUUAUCACUACGAAAUCUUGAGAUCUGGCGUUCGACUAGCCCCCGGGAGAUUUUUUCCUCGAGCAA [C12A G65U C77A], for which the nonsense suppression is ≤ 0.026. As to CUCUCGGUAGCCAAGUUGGUUUAAGGCGCAAGGCUUUAAUUUAUCACUACGAAAUCUUGAGAUCGGGCGUUCCACUCGCCCCCGGGAGAUUUUUUCCUCGAGCAA [A33G G73C], the nonsense suppression was ≤ 0.026. As to CUCUCGGUAGCCAAGUAGGUUUAAGGCGCAAGACUUUAAUUUAUCACUACGAAAUCUUGAGAAUGCGCGUUCGCCUCGCCCCCGGGAGAUUUUUUCCUCGAGCAA [U17A U63A C64U G66C A74C], the nonsense suppression is ≤ 0.026.

On to CUCUCGGUAGCCAAGUUGGUUUAAGGCGCAAGACUUUAAUUUAUCACUACGAAAUCUUGAGAUCGGGACUGCGACUCGCCCCCGAGAGAUUUUUUCCUCGAGCAA [C68A G69C U71G G85A], for which the nonsense suppression is ≤ 0.026. Consider CUCUUGGUAGCCAAGUUGGUUUUAGGCGCAAGACUUUAAUUUAUCACUACGAAAUCUUGAGAUCGGGCGUUCGACUCGCCCCCGGGAGAUUUUUUCCUCGAGCAA [C5U A23U], for which the nonsense suppression is ≤ 0.026.

On to CUCUCGGUAGCCAAGUUCCUUUAAGGCGCAAGACUUUAAUUUAUCACUACGAAAUCUUGAGAUCGGGCGUCCGACUCGCCCCCGGGAGAUUUUUUCCUCGAGCAA [G18C G19C U71C], for which the nonsense suppression is ≤ 0.026.

As to CUCUCGGUGGCCAAGUUGGUUUAACGCGCAAGACUUUAAUUUAUCACUACGAAAUCUUGACAUCGGGCGUUCGACUCGCCCCCGGGAAAUUUUUUCCUCGAGCAA [A9G G25C G61C G88A], the nonsense suppression is ≤ 0.026. On to CUCUCGGUAUCCCAGUUGGUUUAAGGCGUAAGACUUUAAUUUAUCACUACGAAAUCUUGAGAUCGGGCGUUCGACGCGCCCCCGGGAGAUUUUUUCCUCGAGCAA [G10U A13C C29U U76G], for which the nonsense suppression is ≤ 0.026.

For CUCUCGGUAGCCAAGUUGGUUUAAGGCGCAAGACUUUAAUUUAUCACUACGAAAUCUUGAGAUCGGGCGCUCGACUCACCCCCGGGAGAUUUUUUCCUCGAGCAA [U70C G78A], the nonsense suppression is 0.0308. For UUCUCGGUAGCCAAGUUGGUUUAAGACGCAAGACUUUAAUUUAUCACUACGAAAUCUUGAGCUCGGGCGCUCGACUCGCCCCCGGGAUAUUUUUUCCUCGAGCAA [C1U G26A A62C U70C G88U], the nonsense suppression is ≤ 0.026.

Consider CUCUCGGUAGCCAAGUUGGUUUAAGGCGCAUGACUUUAAUUUAUCACUACGAAAUCUUGAGAUCGGGCAUUCGACUCGCCCCCGGGAGAUUUUUUCCUCGAGCAA [A31U G69A], for which the nonsense suppression is ≤ 0.026.

For CUGUCGGUUGCCAAGUUGGUUUACGGCGCAAGACUUUAAUUUAUCACUACGAAAUCUUGAGAUCCGGCGUUCGACUCGCCCCCGGGAGAUUUUUUCCUCGAGCAA [C3G A9U A24C G65C], the nonsense suppression is ≤ 0.026. As for CUGUCGGUAGCCAAGUUGGUUUAAGGCGCAAGCCUUUAAUUUAUCACUACGAAAUCUUGAGAUCGGGCGUUCGACUCGGCCCCGGGAGAUUUUUUCCUCGAGCAA [C3G A33C C79G], the nonsense suppression is ≤ 0.026. Then CUCUCGGUUGCCAAGUUGGUCUAAGGCGCAAGACUUUAAUUUAUCACUACGAAAUCUUGAGAUCGGGGGUUCGACUCGCCCCCGGGAGAUUUUUUCCUCGAGCAA [A9U U21C C68G], with ≤ 0.026.

For CUCUCGGUAGCCAACUUGGUUUAAGGCGCAAGACUUUAAUUUAUCACUACGAAAUCUUGGGAUCGGGCGUUCGACUCGCCCCCGGGAGAUUUUUUCCUCGAGCAA [G15C A60G], the nonsense suppression was ≤ 0.026.

Turning to CUCGCGGUAGCCAAGUUCGUUUAAGGCGCAAGACUUUAAUUUAUCACUACGAAAUCUUGAGAUCGGGCGUUCGACUCGCCCCCGGGAGAUUUUUUCCUCGAGCAA [U4G G18C], the nonsense suppression was ≤ 0.026. For the variant CUCUCGGUAGCCAAGUUGGUUUAAUGGGCAAGACUUUAAUUUAUCACUACGAAAUCUUGAGAUCGGGCGUCCGACUCGCCCCCGGGAGAUUUUUUCCUCGAGCAA [G25U C27G U71C], the nonsense suppression is ≤ 0.026. As to CUCUCGGUAGCCAAGUUGGUUUAAGGCGCAAGACUUUAAUUUAUCACUACGAAUUCUUGAGAUCGGGCGUUCGAAUCGCCCCCGGCAGAUUUUUUCCUCGAGCAA [A54U C75A G86C], the nonsense suppression was ≤ 0.026.

Consider CUCUCGGUAGCCAGGUUGGUUUAAGGCGCAAGACUUUAAUUUAUCACUACGAAAUCUUGAGUUCGGGCGUUCGAGUCGCCCCCGGGAGAUUUUUUCCUCGAGCAA [A14G A62U C75G], for which the nonsense suppression is ≤ 0.026. On to CCCUCGGUAGCCAAGAUGGUUUAAGGCGCAAGACUUUAAUUUAUCACUACGAAAUCUUUAGAUCGGGCGUUCGACUCGCCCCCGGGAGAUUUUUUCCUCGAGCAA [U2C U16A G59U], for which the nonsense suppression is ≤ 0.026.

Take CUCUCGGUAGCCAAGUUGGUUUAAGGCGCAAGACUUUAAUUUAUCACUACGAAAUCUUGAGAUCGGGCGUUCGACAGGCCCCCGGGAGAUUUUUUCCUCGAGCAA [U76A C77G]: the nonsense suppression was ≤ 0.026. In the case of CUCUCGGUAGCCAAGUUGGUUUCAGGCGCAAGACUUUAAUUUAUCACUACGAAAUUUUGAGAUCGGGCGUUCGACUCGCCCCCGGGAGAUUUUUUCCUCGAGCAA [A23C C56U] it was ≤ 0.026; in that of CUCUCGGUAGCCAAGUUGGUUUAAGGCGCACGACUUUAAUUUAUCACUACGAAAUCUUGAGAUCGGGCGUUCGACUCUCCCCCGGGAGAUUUUUUCCUCGAGCAA [A31C G78U], ≤ 0.026; in that of CUCUCGGUAGCCAAGUUGGUUUAAGGCGCAAGACUUUAAUUUAUCACUACGAAAGCCUGAGAUCGGGCGUUCGACUCGCCCCCGGGAGAUUUUUUCCUCGAGCAA [U55G U57C], ≤ 0.026.
